According to the RNAGym collection of RNA variant scans (doi:10.7554/elife.90254):
Read counts are not given, so values of variants with three or more changes are uncertain.

B1: LINE1-mini (parent)
chain: GGCAGAGCUCAACACAGCGUGGCAAAGUGGCUGUGGCUAGACUGCC

Variants of: B1
Assay: self-cleavage, relative activity (ratio to wild type); higher = more cleavage; in vitro, sequencing; the parent is a self-cleaving ribozyme

With A6G C8A A11C G21A A25C as the variant, how does the self-cleavage read?
The self-cleavage was 0.01.

For A6C G7U C8U C13G C18G G44A, which self-cleavage is on record?
Its self-cleavage is 0.28.

With A6G C8G C10G A11G C46U as the variant, how does the self-cleavage read?
The self-cleavage was 0.02.

For A6G C8A A25G G33U, which self-cleavage is on record?
The self-cleavage was 0.2.

With A6G C13U G19A U20A as the variant, how does the self-cleavage read?
Its self-cleavage is 0.14.

With A6C U9G A24G C45G as the variant, how does the self-cleavage read?
The self-cleavage was 0.02.

With A6C U34C U38G G44U as the variant, how does the self-cleavage read?
The self-cleavage was 0.01.

For A6G C8U A41C, which self-cleavage is on record?
Its self-cleavage is 0.25.

Which self-cleavage does the source give for A6C U9A A12C here?
Its self-cleavage is 0.01.

With A6C U20A G27U as the variant, how does the self-cleavage read?
Its self-cleavage is 0.39.

For A6C G21U G22U G44A, which self-cleavage is on record?
Its self-cleavage is 0.25.

For A6G A24U G40U C46A, which self-cleavage is on record?
The self-cleavage was 0.26.

With A6C G35C C42A G44C as the variant, how does the self-cleavage read?
Its self-cleavage is 0.02.

With A6C G40U U43A as the variant, how does the self-cleavage read?
The self-cleavage was 0.04.

For A6C G30A G35U G36A A39U C45G, which self-cleavage is on record?
The self-cleavage was 0.02.

Which self-cleavage does the source give for A6C U28G G33A here?
Its self-cleavage is 0.02.

With A6C G35U C45A as the variant, how does the self-cleavage read?
Its self-cleavage is 0.02.

For A6G C10A A25C G36A, which self-cleavage is on record?
Its self-cleavage is 0.02.

With A6C U34C G44U C46A as the variant, how does the self-cleavage read?
Its self-cleavage is 0.05.

With A6G C8A G27U as the variant, how does the self-cleavage read?
Its self-cleavage is 0.12.

Which self-cleavage does the source give for A6G C10U A14G C18U U34A A39U here?
Its self-cleavage is 0.01.

For A6C G19A A24U G29C, which self-cleavage is on record?
Its self-cleavage is 0.66.

For A6G C10U C15A C31U A41G, which self-cleavage is on record?
The self-cleavage was 0.03.

For A6G C8G A12C A16C G19A G22A C42A, which self-cleavage is on record?
The self-cleavage was 0.01.

For A6C G7C G19U G33A, which self-cleavage is on record?
The self-cleavage was 0.24.

For A6G A26U G29C C31G, which self-cleavage is on record?
The self-cleavage was 0.02.

For A6C G7U A14C, which self-cleavage is on record?
Its self-cleavage is 0.04.

With A6G C18A A26G G27U U28G C45G as the variant, how does the self-cleavage read?
The self-cleavage was 0.03.

Which self-cleavage does the source give for A6G C15A G19C G27C U28G U38C C42G G44C here?
The self-cleavage was 0.

With A6C G33A C37U as the variant, how does the self-cleavage read?
Its self-cleavage is 0.06.

For A6G C10U A11U, which self-cleavage is on record?
Its self-cleavage is 0.02.

Which self-cleavage does the source give for A6C G27U U34A here?
The self-cleavage was 0.05.

With A6G C13U C15A A24U as the variant, how does the self-cleavage read?
Its self-cleavage is 0.02.

For A6G C8A A26G U34G, which self-cleavage is on record?
The self-cleavage was 0.15.

For A6C U9C A14C A24G C37G C46U, which self-cleavage is on record?
Its self-cleavage is 0.

With A6C G19C G33U G35C A41C as the variant, how does the self-cleavage read?
The self-cleavage was 0.05.

With A6G A14U G17A as the variant, how does the self-cleavage read?
The self-cleavage was 0.09.

Which self-cleavage does the source give for A6G A25U C42U here?
Its self-cleavage is 0.19.

With A6C G21A G33A G35U as the variant, how does the self-cleavage read?
The self-cleavage was 0.04.

For A6G A11U C15A G21C, which self-cleavage is on record?
The self-cleavage was 0.01.

Which self-cleavage does the source give for A6C G19U G22A G35U G36U here?
Its self-cleavage is 0.21.

With A6G C13G U28C G33U G36U C45U as the variant, how does the self-cleavage read?
The self-cleavage was 0.35.

Which self-cleavage does the source give for A6G C15U G27U G36A here?
Its self-cleavage is 0.04.

Which self-cleavage does the source give for A6G C15G G19U A26C G36C G44U here?
Its self-cleavage is 0.01.

For A6G C15A C31A, which self-cleavage is on record?
Its self-cleavage is 0.05.

For A6C U28A G40C, which self-cleavage is on record?
Its self-cleavage is 0.05.

For A6C G7U C8U, which self-cleavage is on record?
Its self-cleavage is 0.27.

For A6G C10G A24U G30A, which self-cleavage is on record?
Its self-cleavage is 0.

Which self-cleavage does the source give for A6G C15G C18G A26G U43G here?
The self-cleavage was 0.03.

With A6G C8A G21A as the variant, how does the self-cleavage read?
The self-cleavage was 0.65.

For A6G C8A G21C, which self-cleavage is on record?
The self-cleavage was 0.14.

Which self-cleavage does the source give for A6G C8U C15A A16G C18G G40A here?
Its self-cleavage is 0.21.

With A6G A12G C42G as the variant, how does the self-cleavage read?
Its self-cleavage is 0.01.

With A6G A26G C45G as the variant, how does the self-cleavage read?
The self-cleavage was 0.11.

With A6C G7C C46A as the variant, how does the self-cleavage read?
The self-cleavage was 0.23.

For A6G C8U A12G, which self-cleavage is on record?
Its self-cleavage is 0.15.

With A6G A14C A26U G35A A39C as the variant, how does the self-cleavage read?
The self-cleavage was 0.04.

With A6G C15U G30U A39U as the variant, how does the self-cleavage read?
The self-cleavage was 0.05.

For A6C G7A G33A G40C C42A, which self-cleavage is on record?
The self-cleavage was 0.07.

For A6G A12G C18A, which self-cleavage is on record?
Its self-cleavage is 0.01.

For A6G A11C G19A C23U, which self-cleavage is on record?
Its self-cleavage is 0.02.

For A6C G7C U32G C46A, which self-cleavage is on record?
Its self-cleavage is 0.09.

With A6C G17U G40A as the variant, how does the self-cleavage read?
Its self-cleavage is 0.18.

For A6G A16C G30U C46U, which self-cleavage is on record?
The self-cleavage was 0.01.

With A6G A12U G29U C46G as the variant, how does the self-cleavage read?
The self-cleavage was 0.02.

With A6G A14G G40C C42U as the variant, how does the self-cleavage read?
The self-cleavage was 0.06.

With A6G A26U G40A as the variant, how does the self-cleavage read?
The self-cleavage was 0.51.

With A6G C15A A39G as the variant, how does the self-cleavage read?
The self-cleavage was 0.01.

Which self-cleavage does the source give for A6G C13G U28G G35U here?
The self-cleavage was 0.22.

For A6C C23G U28C C45G, which self-cleavage is on record?
The self-cleavage was 0.

With A6G A14U A16C U28A A39G G40A U43G as the variant, how does the self-cleavage read?
Its self-cleavage is 0.08.

With A6G A14U C31U C42U as the variant, how does the self-cleavage read?
The self-cleavage was 0.02.

With A6G C13G A24G A26U U38G as the variant, how does the self-cleavage read?
The self-cleavage was 0.01.

Which self-cleavage does the source give for A6G A25G G36A here?
Its self-cleavage is 0.06.

With A6G A11U C18U G29A A41U G44U C45A as the variant, how does the self-cleavage read?
The self-cleavage was 0.01.

For A6C U9C C31A C46A, which self-cleavage is on record?
The self-cleavage was 0.01.

With A6C C23A A24C G29A as the variant, how does the self-cleavage read?
Its self-cleavage is 0.28.

Which self-cleavage does the source give for A6C G7A C10A here?
Its self-cleavage is 0.01.

With A6G A24U C42A as the variant, how does the self-cleavage read?
Its self-cleavage is 0.04.

With A6C G27U G29U as the variant, how does the self-cleavage read?
The self-cleavage was 0.1.

With A6G A12U A26G as the variant, how does the self-cleavage read?
The self-cleavage was 0.01.

Which self-cleavage does the source give for A6C G19A U43C here?
Its self-cleavage is 0.11.

For A6G C10U G17A G21U U32C G36A C37G U38G, which self-cleavage is on record?
Its self-cleavage is 0.01.
